# A lower IC50 marks a more sensitive line; a limit (>, <) means that the fit lies beyond the doses tested. The AUC spans the tested range (256-fold, ending at the top dose) of the same fit: 1 means no effect, lower means more sensitive. For part of these data: Where the top dose is marked as inferred, it was derived from the fitted curves, not read from the paper. For part of these data: Drugs with an entry number were screened twice under separate entries, and the two screens often disagree.
# Experiments:
# Test in all cases: Viability of human cancer cell lines after 72 h of drug (GDSC screen)
# [1] = compound: C/C=C(/C)C(=O)O[C@H]1C(C)=C2[C@H]([C@@H]1OC(=O)CCCCCCC)[C@@](C)(OC(C)=O)C[C@H](OC(=O)CCC)[C@@]1(O)[C@H]2OC(=O)[C@@]1(C)O [Thapsigargin]; details: top dose 0.512 µM; top dose inferred
# Description: (§1)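 Human cancer cell lines in 384-well plates, medium with 10% serum, drug for 72 h over a 256-fold dose range (nine 2-fold or five 4-fold steps up to the top dose). Adherent lines were fixed and stained with the nucleic acid dye Syto60, suspension lines read with resazurin; signal relative to control wells, capped at 0 and 100%. One two-parameter sigmoid per drug and line, fitted in a mixed model over all curves with the slope shared within a line.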
# [2] = compound: C=CC(=O)Nc1cc(-n2c(=O)ccc3cnc4ccc(-c5cn[nH]c5)cc4c32)ccc1C [QL-X-138]; details: top dose 10.24 µM; top dose inferred
# Description: as §1
# [3] = compound: CCn1c(-c2nonc2N)nc2cnc(Oc3cccc(NC(=O)c4ccc(OCCN5CCOCC5)cc4)c3)cc21 [GSK269962A]; details: top dose inferred
# Description: as §1
# [4] = compound: COc1cc(N2CCC(O)CC2)ccc1Nc1cc(Nc2ccccc2S(=O)(=O)C(C)C)c2cc[nH]c2n1 [MPS-1-IN-1]; details: top dose 20 µM; top dose inferred
# Description: as §1
# [5] = compound: COc1cc(O)c2c(c1)/C=C/C[C@H](O)[C@H](O)C(=O)/C=C\C[C@H](C)OC2=O [(5Z)-7-Oxozeaenol]; details: top dose 10 µM; top dose inferred
# Description: as §1
# [6] = compound: COc1cc2ncnc(-n3nc(-c4ccccn4)nc3N)c2cc1OC [CP466722]; details: top dose 16 µM; top dose inferred
# Description: as §1
# [7] = compound: COc1nc(C)cnc1NS(=O)(=O)c1cccnc1-c1ccc(-c2nnco2)cc1 [Zibotentan]; details: top dose 20 µM; top dose inferred
# Description: as §1
# [8] = compound: C[C@]1(c2nc3c(C(N)=O)cccc3[nH]2)CCCN1 [ABT-888]; details: top dose 5 µM; top dose inferred
# Description: as §1
# [9] = compound: Cc1ccc(-c2c(C(=O)CCl)n(CCCO)c3ncnc(N)c23)cc1 [CMK]; details: top dose 4 µM; top dose inferred
# Description: as §1
# [10] = compound: Cc1ccc(F)c(NC(=O)Nc2ccc(-c3cccc4[nH]nc(N)c34)cc2)c1 [ABT-869]; details: top dose 1.024 µM; top dose inferred
# Description: as §1
# [11] = compound: Cc1cnc(-c2cnc(NCCNc3ccc(C#N)cn3)nc2-c2ccc(Cl)cc2Cl)[nH]1 [CHIR-99021]
# Description: as §1
# [12] = compound: Nc1ccn([C@@H]2O[C@H](CO)[C@@H](O)[C@@H]2O)c(=O)n1 [Cytarabine]; details: top dose 2 µM
# Description: as §1
# [13] = compound: O=c1cc(-c2cccc3c2Sc2ccccc2S3)oc(N2CCOCC2)c1 [KU-55933]; details: top dose 10 µM
# Description: as §1
# [14] = top dose 2.5 µM, screen: GDSC drug entry 127
# [15] = top dose 5 µM, screen: GDSC drug entry 1192
# [16] = top dose 2.56 µM, screen: GDSC drug entry 154
# [17] = top dose 10 µM, screen: GDSC drug entry 1241, top dose inferred
Cell Line,AUC [1],IC50 [1] [µM],AUC [2],IC50 [2] [µM],"AUC [3, 14]","IC50 [3, 14] [µM]","AUC [3, 15]","IC50 [3, 15] [µM]",AUC [4],IC50 [4] [µM],AUC [5],IC50 [5] [µM],AUC [6],IC50 [6] [µM],AUC [7],IC50 [7] [µM],AUC [8],IC50 [8] [µM],AUC [9],IC50 [9] [µM],AUC [10],IC50 [10] [µM],"AUC [11, 16]","IC50 [11, 16] [µM]","AUC [11, 17]","IC50 [11, 17] [µM]",AUC [12],IC50 [12] [µM],AUC [13],IC50 [13] [µM]
"EVSA-T (breast, adherent)",0.665,0.0851,0.818,4.76,0.989,> 2.5,0.93,> 5,0.933,> 20,0.747,2.81,0.927,> 16,0.991,> 20,0.991,> 5,0.831,2.06,0.991,> 1.02,0.991,> 2.56,0.987,> 10,0.753,0.586,0.903,9.88
"EW-3 (Ewing sarcoma, adherent)",0.632,0.0785,0.639,1.65,0.974,> 2.5,0.963,> 5,0.77,8.71,0.834,7.87,0.732,5.08,0.975,> 20,0.924,> 5,0.962,> 4,0.983,> 1.02,0.982,> 2.56,0.982,> 10,0.659,0.37,0.983,> 10
"EW-13 (Ewing sarcoma, suspension)",0.207,0.00389,0.554,0.911,0.981,> 2.5,0.98,> 5,0.868,> 20,0.885,> 10,0.685,3.5,0.985,> 20,0.97,> 5,0.977,> 4,0.986,> 1.02,0.986,> 2.56,0.984,> 10,0.985,> 2,0.985,> 10
"EW-16 (Ewing sarcoma, adherent)",0.108,< 0.002,0.582,1.09,0.978,> 2.5,0.881,> 5,0.751,6.87,0.749,3.37,0.806,8.57,0.984,> 20,0.981,> 5,0.858,3.52,0.983,> 1.02,0.966,> 2.56,0.956,> 10,0.653,0.34,0.95,> 10

# Reference: the supplement of paper PMC4967469
